# The list shows a part of the results. Sequences were assembled here from the parent chain. Inactive controls read about 0.05.
# B1: TEV protease; numbered along this chain (parent)
# chain: MGESLFKGPRDYNPISSSICHLTNESDGHTTSLYGIGFGPFIITNKHLFRRNNGTLVVQSLHGVFKVKDTTTLQQHLVDGRDMIIIRMPKDFPPFPQKLKFREPQREERICLVTTNFQTKSMSSMVSDTSCTFPSGDGIFWKHWIQTKDGQCGSPLVSTRDGFIVGIHSASNFTNTNNYFTSVPKNFMELLTNQEAQQWVSGWRLNADSVLWGGHKVFMVKPEEPFQPVKEATQL
# Variants of: B1
# Assay: raw area under fraction-flipped curve 0-4 h after induction (AUC4h, not background-subtracted), DNA-recorder readout of cleavage of the substrate (dimensionless); higher = more cleavage of the substrate by the protease variant
# Details: temperature: 34 °C; time window: 0-4 h after rhamnose induction
# Procedure: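 In vivo DNA recorder in E. coli TOP10(DE3) ΔrhaA at 34 °C. Each TEVp single-site mutant (parent TEVp 0) is paired with a single-site variant of the 7-mer TEVs (canonical ENLYFQ|S). The substrate sits between flexible linkers in a Bxb1-sfGFP-TEVs-SsrA fusion, so cleavage stabilises Bxb1 and speeds flipping of a recombination array, read by NGS. The value is the raw area under the fraction-flipped curve over 0-4 h after rhamnose induction (AUC4h), with ≥20 reads per time point. It is not background-subtracted; inactive controls average about 0.047.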
# 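Note: Bxb1 expression induced with 0.2% (w/v) L-rhamnose at OD600 near 0.5, cultures sampled hourly, flipped fraction per protease–substrate barcode pair counted by paired-end Illumina sequencing.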
Variant,area with substrate ECLYFQS,area with substrate EDLYFQS,area with substrate EHLYFQS,area with substrate EILYFQS,area with substrate ELLYFQS,area with substrate EPLYFQS,area with substrate ERLYFQS,area with substrate ESLYFQS,area with substrate ETLYFQS,area with substrate EWLYFQS,area with substrate EFLYFQS,area with substrate EKLYFQS,area with substrate EMLYFQS,area with substrate EVLYFQS,area with substrate EELYFQS,area with substrate EGLYFQS,area with substrate EQLYFQS,area with substrate EYLYFQS,area with substrate EALYFQS
E224V,0.0823,0.118,0.0791,0.0897,0.0617,0.115,0.0992,0.105,0.134,0.0679,–,–,–,–,–,–,–,–,–
E224S,0.103,0.116,0.0931,0.0691,–,–,0.0894,0.0937,0.158,–,0.103,0.0995,0.0926,0.119,–,–,–,–,–
T72C,0.0653,–,0.113,–,0.0668,–,–,0.117,–,0.0792,–,0.115,0.102,0.101,0.128,0.11,0.112,–,–
T72G,0.0822,0.111,0.0641,0.0823,0.0818,–,–,0.0701,–,0.0969,–,0.0676,0.0769,0.0925,0.106,–,0.11,–,–
T72A,0.0618,–,0.1,0.108,0.0846,0.125,–,0.109,–,0.0979,–,0.0904,–,–,–,–,0.11,–,–
K120W,0.101,–,0.112,0.137,0.0861,–,–,0.114,0.118,0.116,0.101,0.0912,0.109,–,–,–,0.138,0.0865,–
K120H,0.13,0.134,0.12,0.0835,–,–,–,0.107,–,0.0849,0.116,–,0.186,0.123,0.152,–,0.1,0.128,–
K120G,0.0982,–,–,–,0.0704,0.11,0.0799,0.0847,–,–,–,–,0.121,–,–,–,–,–,–
R160K,0.0967,–,0.0937,0.0872,0.089,0.13,–,0.125,–,–,–,–,–,0.0919,–,0.0973,0.0564,–,–
R160Y,0.106,–,–,0.102,0.117,0.106,–,0.109,–,–,0.0949,0.06,0.109,0.0737,–,0.0848,0.0907,–,–
G8D,0.0573,–,–,–,–,0.148,–,0.113,–,–,–,–,–,–,–,0.0881,0.111,–,0.0967
N24R,0.0831,0.0624,–,0.0769,0.0606,0.075,0.064,0.0637,–,0.0775,–,0.0685,–,0.0729,0.079,0.0711,0.0657,0.0751,–
T176S,0.0893,0.112,–,0.0866,0.0732,–,–,0.0798,0.0982,0.0904,0.116,0.0836,0.0965,0.0691,0.0969,0.0577,0.0705,0.095,–
H168K,0.0371,0.0655,0.0649,0.0617,0.0604,–,–,0.0494,–,0.0517,–,0.114,–,0.0619,–,–,0.0682,0.0527,–
H168M,0.058,0.0621,–,0.0552,0.0499,–,0.0609,0.0578,–,–,0.0733,0.0676,0.0577,0.0493,0.0596,0.067,0.0505,–,–
H168N,0.0559,0.0616,–,0.0658,–,0.0935,0.0672,0.0519,–,0.0627,–,0.0718,0.0572,–,–,–,–,–,–

Variant,area with substrate ECLYFQS,area with substrate EDLYFQS,area with substrate EHLYFQS,area with substrate EILYFQS,area with substrate ELLYFQS,area with substrate EPLYFQS,area with substrate ERLYFQS,area with substrate ESLYFQS,area with substrate ETLYFQS,area with substrate EWLYFQS,area with substrate EFLYFQS,area with substrate EKLYFQS,area with substrate EMLYFQS,area with substrate EVLYFQS,area with substrate EELYFQS,area with substrate EGLYFQS,area with substrate EQLYFQS,area with substrate EYLYFQS,area with substrate EALYFQS
A232G,0.123,0.137,–,–,–,–,0.13,0.174,–,0.113,–,0.101,–,–,0.139,0.0757,0.188,0.0641,–
A232W,0.145,–,–,0.119,–,–,0.0961,0.102,–,0.0857,–,–,0.112,0.0689,–,–,0.108,–,–
P40G,0.102,0.138,–,0.109,–,0.0895,0.118,0.109,–,0.106,–,0.116,–,0.103,0.0986,–,0.116,0.119,0.127
P40H,0.131,0.0826,0.107,0.0999,0.115,–,0.0963,0.128,–,0.0934,0.0888,–,0.122,0.106,0.0995,0.102,0.0987,0.11,–
P40F,0.0676,0.114,0.0811,0.103,0.0876,0.0928,0.0964,0.0859,0.0978,–,–,0.112,0.0972,0.0687,–,0.0699,0.102,0.131,–
P40S,0.112,0.148,0.135,0.103,0.211,0.151,0.0889,0.0987,0.132,0.0965,0.103,0.0986,0.128,0.105,0.141,0.119,0.102,0.0979,–
P184I,0.0736,0.0922,–,0.0662,–,0.0815,0.0846,0.0623,–,–,–,0.0731,0.0767,0.0699,0.0767,0.0752,0.073,–,–
P184V,0.093,0.095,–,0.069,0.0609,–,0.0761,0.0718,0.143,0.0731,0.0682,0.089,0.0697,–,0.0895,–,0.0819,0.0799,–
P184W,0.0675,0.0547,–,0.0771,0.0631,0.0588,–,0.0598,–,0.0606,–,0.0679,0.0679,0.0755,0.0573,0.0435,0.0726,–,–
V200S,0.0759,–,–,–,–,–,–,0.0985,–,–,–,–,–,–,–,–,–,–,–
V200L,0.0716,–,–,–,–,0.0761,–,–,0.103,0.0729,–,–,–,0.0273,0.0829,0.136,–,–,–
V200T,0.0886,–,0.0922,–,0.0871,–,0.0942,0.1,0.11,–,–,–,–,0.0975,0.105,–,–,0.0869,–
V200A,0.0542,0.046,–,0.058,–,–,0.0681,0.0733,–,–,–,–,–,0.0767,–,0.0637,–,0.0536,–
P96F,0.11,–,–,–,0.0609,–,0.103,0.0978,–,0.0795,0.0987,0.0563,0.111,–,0.141,–,0.106,–,–
P96M,0.0921,0.121,0.113,0.117,0.0934,–,0.0963,0.077,0.116,0.0837,0.0537,0.0983,0.103,–,–,0.0872,–,0.0895,–
